Data from PubChem BioAssay AID1379 (National Center for Advancing Translational Sciences (NCATS), 2008).
Among all 200,000 compounds or so, about 560 (0.28%) were called active. This list was built around the results that the source calls inconclusive (neither active nor inactive); the mix of calls is not that of the screen. Calls follow the shape of the dose curve; as a rule, active = well fitted inhibition curve with a large enough effect; inconclusive = small, poorly fitted or top-dose-only effect; inactive = flat fitted curve, though single readings scatter. No potency is given beside an inconclusive call; the fits are too rough.

Biological target: Luciferin 4-monooxygenase (Photuris pensylvanica) (UniProt Q27757)
Experiment: Counterscreen for Luciferase (Kinase-Glo TM) Inhibition; also: nearly all actives have a fitted effect of over 60% in size
Conditions: ATP luminescence, 8 min; series mostly up to 38.3 µM
How it was run: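 Light output from Kinase-Glo luciferase with luciferin and 10 uM ATP in 50 mM imidazole pH 7.2, KCl, MgCl2, Tween 20, BSA; compound pin-delivered, 8-min ambient incubation, then luminescence read.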
Potency is read from the fitted curve at half-maximal effect; tags tell the direction and shape of the fitted curve.

| SMILES | Potency |
| --- | --- |
| COc1ccc(N=Cc2c(O)c3ccccc3oc2=O)cc1 | inconclusive [inhibitor, single point] |
| CCc1nn2cc(-c3ccccc3)nc2s1 | active: 10 µM |
| O=C1N/C(=C\c2ccc(O)cc2)C(=O)c2ccccc21 | active: 12.6 µM |
| O=C(O)c1c(Cl)c(Cl)c(Cl)c(Cl)c1-c1c2cc(I)c(=O)c(I)c-2oc2c(I)c(O)c(I)cc12 | active: 12.6 µM |
| CCOc1ccc2nc(/N=C/c3c(C)[nH]n(-c4ccc(C)cc4)c3=O)sc2c1 | active: 7.94 µM |
| Cc1ccc(-c2cc3c(N=O)c4ccccc4c-3n[nH]2)cc1 | active: 10 µM |
| O=c1c2c(nc3cc(-c4ccccc4)[nH]n13)CCC2 | inconclusive [inhibitor, partial curve] |
| CCSc1nncn1/N=C/c1ccc(OC)c(OC)c1 | inactive |
| Cc1ccc(/C=C/C2=NN(C)C(=O)CC2)cc1 | inconclusive [inhibitor, single point] |
| O=c1c2ccccc2nc(N/N=C/c2ccccc2)n1O | inconclusive [inhibitor, single point] |
| Cc1ccnc(NC(=O)c2ccccc2NC(=O)C(C)(C)C)c1 | inactive |
| O=C(c1ccco1)n1c(=S)nc2ccccn21 | active: 12.6 µM |
| Cc1ccc(O)c(C(=O)/C=C/c2ccc3c(c2)OCCCO3)c1 | inconclusive [inhibitor, partial curve] |
| Cc1ccc(/C=N/Nc2ccc3ccccc3n2)o1 | inconclusive [inhibitor, partial curve] |
| CC1=NN(c2ccc([N+](=O)[O-])cc2)C(=O)/C1=C\N(C)C | active: 12.6 µM |
| COc1ccc(C2=C(N)c3ccccc3C2=O)cc1 | inconclusive [inhibitor, partial curve] |
| Cc1cnc(C(=O)Nc2ccccc2F)cn1 | inconclusive [inhibitor, single point] |
| CCOc1cc2[nH]c(=S)n(CCCN(CC)CC)c(=O)c2cc1OCC | inactive |
| COc1cccc2cc(-c3ccnc(N)n3)oc12 | inconclusive [inhibitor, partial curve] |
| Cc1ccc(NC(=O)c2ccccc2)s1 | inconclusive [inhibitor, single point] |
| Clc1ccccc1CSc1nc2ccncc2[nH]1 | inconclusive [inhibitor, partial curve] |
| COc1ccc(NC(=O)c2cccc([N+](=O)[O-])c2)cc1 | inconclusive [inhibitor, single point] |
| Cc1cccc(/C=C\c2nc3ccccc3c(=O)[nH]2)c1 | inconclusive [inhibitor, single point] |
| Cc1ccc(C)c(N=Nc2nc3ccccc3n2C)c1 | inconclusive [inhibitor, partial curve] |
| Cc1ccc(Nc2nnc(SC3CCOC3=O)s2)cc1 (configuration not stated) | inactive |
| CCOc1ccc(OCC(=O)Nc2nccs2)cc1 | active: 11.2 µM |

| SMILES | Potency |
| --- | --- |
| CCc1ccc(-c2cc(C(=O)NCc3ccccn3)c3ccccc3n2)cc1 | inconclusive [inhibitor, single point] |
| CCN1/C(=C/c2ccc3ccccc3[n+]2CC)C=Cc2ccccc21 | inactive |
| CCN1C(c2ccccc2)=C(c2ccccc2)S/C1=C/C=C1\SC(=S)N(C)C1=O | inconclusive [inhibitor, partial curve] |
| CCOc1ccc(/C=N/NC(=O)c2[nH]ncc2Br)c(O)c1 | active: 11.2 µM |
| O=C(N/N=C/c1ccc[nH]1)c1cc(-c2ccc(Cl)cc2)nc2ccccc12 | inactive |
| O=C(Nc1ccccc1)c1nc2ccccc2s1 | inconclusive [inhibitor, partial curve] |
| CCN(CC)c1ccc2cc(-c3nc4ccccc4[nH]3)c(=O)oc2c1 | inconclusive [inhibitor, single point] |
| Cc1ccc2nc(-c3cccnc3SCC(=O)N3c4ccccc4CC3C)[nH]c2c1 (configuration not stated) | inconclusive [inhibitor, partial curve] |
| CCCC(=O)NCCc1cc2ccc(OC)cc2[nH]c1=O | inactive |
| c1csc(-c2nnc3ccccn23)c1 | inactive |
| O=C(c1ccccc1)c1nnc(-c2ccccc2F)o1 | inconclusive [inhibitor, partial curve] |
| CCOC(=O)c1cc(-c2ccccc2)nc2nc(N3CCCCC3)sc12 | inactive |
| COc1ccc(S(=O)(=O)N2CCc3ccccc32)cc1C(=O)OCc1c(C)noc1C | inactive |
| Cc1noc(C)c1COC(=O)c1cccc(N(C)C)c1 | inactive |
| Cc1cccc(/C=N\NC(=O)c2csnn2)c1 | inconclusive [inhibitor, partial curve] |
| O=C(Nc1cccnc1)c1noc2c1CCCCC2 | inconclusive [inhibitor, single point] |
| COC(=O)Cc1ccc2sc(-c3ccccc3)nc2c1 | active: 12.6 µM |
| COC(=O)c1sc2nc(-c3ccco3)ccc2c1N | inconclusive [inhibitor, single point] |
| Cc1ccc(C(=O)N/N=C\c2c(C)nn(-c3ccccc3)c2Cl)cn1 | inconclusive [inhibitor, partial curve] |
| O=C(COC(=O)/C=C/C(=O)OCC(=O)NC12CC3CC(CC(C3)C1)C2)NC12CC3CC(CC(C3)C1)C2 | inactive |
| COc1cccc(NC(=S)NC2CC(C)(C)NC(C)(C)C2)c1 | inactive |
| O=C(/C=C/c1ccc([N+](=O)[O-])cc1)Nc1cccnc1 | inconclusive [inhibitor, partial curve] |
| Cc1ccc(-c2cn3cc(C)ccc3n2)cc1 | active: 11.2 µM |
| O=C(/C=C/c1ccccc1)/C=C/c1ccccc1 | inactive |
| Oc1ccccc1/C=N/c1c(-c2ccco2)nc2ccccn12 | inconclusive [inhibitor, single point] |
| Cn1nc(/C=C/c2ccccc2)ccc1=O | inconclusive [inhibitor, single point] |
